This note sets out measurements from publication PMC4336329 (PLoS ONE, 2015).

In all, about 310,000 compounds went through this assay and about 2,200 (0.71%) showed an effect of 50% or more. Effects have a minus sign here. The list shows a part of the results.

For this experiment, the target named is human ether-à-go-go-related gene (hERG) potassium channel (human, UniProt Q12809). Kind of experiment: primary screen, population patch clamp on CHO cells stably expressing hERG.
Chain of human ether-à-go-go-related gene (hERG) potassium channel (Q12809 whole entry, looked up): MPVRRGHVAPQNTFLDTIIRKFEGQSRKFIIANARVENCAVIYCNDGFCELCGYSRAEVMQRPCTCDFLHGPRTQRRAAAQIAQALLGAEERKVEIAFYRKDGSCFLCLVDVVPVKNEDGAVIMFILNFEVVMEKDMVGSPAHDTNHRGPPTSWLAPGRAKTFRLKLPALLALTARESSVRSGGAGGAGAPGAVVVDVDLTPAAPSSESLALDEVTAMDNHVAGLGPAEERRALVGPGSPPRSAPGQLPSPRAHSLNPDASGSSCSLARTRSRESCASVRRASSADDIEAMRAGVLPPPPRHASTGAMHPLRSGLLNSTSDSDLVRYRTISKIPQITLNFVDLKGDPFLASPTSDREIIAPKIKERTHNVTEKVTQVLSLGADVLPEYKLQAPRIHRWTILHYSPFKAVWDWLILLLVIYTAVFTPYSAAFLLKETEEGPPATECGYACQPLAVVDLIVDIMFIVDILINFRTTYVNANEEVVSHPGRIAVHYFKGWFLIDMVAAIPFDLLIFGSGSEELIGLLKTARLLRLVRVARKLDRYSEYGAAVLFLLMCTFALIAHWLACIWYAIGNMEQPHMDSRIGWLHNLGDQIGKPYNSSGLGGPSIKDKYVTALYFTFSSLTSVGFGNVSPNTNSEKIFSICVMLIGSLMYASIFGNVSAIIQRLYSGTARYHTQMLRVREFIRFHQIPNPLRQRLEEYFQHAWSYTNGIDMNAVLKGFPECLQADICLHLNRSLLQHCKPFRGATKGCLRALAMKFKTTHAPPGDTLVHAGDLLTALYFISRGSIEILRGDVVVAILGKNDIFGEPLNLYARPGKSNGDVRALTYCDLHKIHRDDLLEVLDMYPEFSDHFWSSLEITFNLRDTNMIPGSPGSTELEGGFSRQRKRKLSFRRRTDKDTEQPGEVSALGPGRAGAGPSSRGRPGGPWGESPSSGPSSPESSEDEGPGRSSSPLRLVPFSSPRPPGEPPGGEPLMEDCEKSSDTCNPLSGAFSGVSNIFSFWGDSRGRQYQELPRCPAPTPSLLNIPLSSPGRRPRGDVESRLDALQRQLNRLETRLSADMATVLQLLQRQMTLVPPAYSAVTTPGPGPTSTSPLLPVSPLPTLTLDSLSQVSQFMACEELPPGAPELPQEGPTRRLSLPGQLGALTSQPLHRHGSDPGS
Take `CNC(=S)NNC(=O)c1cccc(C(F)(F)F)c1`: the “hERG current change (%, negative = inhibition) at 1uM” value came to 4.97%. In the case of `COc1ccc(CCNC(=O)/C(C#N)=C/c2cccc(OCc3ccccc3)c2)cc1OC` it was 5.27%; in that of `O=C(NCCc1ccccc1)C1CCC(CNc2c(N3CCCCC3)c(=O)c2=O)CC1` (stereo not drawn), 20.4%; in that of `Cc1cc2ncn(/N=C/c3ccc4c(c3)OCO4)c2cc1C`, 21.3%. `C=CCC(C(=O)OC)(C(=O)OC)c1ccc([N+](=O)[O-])cn1`: the “hERG current change (%, negative = inhibition) at 1uM” value was -1.87%. In the case of `S=C(NCc1ccccc1)NCc1ccccc1Cl` it was 9.77%. The same measure for `NC(=O)NC(=O)COC(=O)c1cccnc1Nc1ccccc1F`: 10.1%. `O=C(O)CCNC(=O)c1ccc(NC(=O)Cc2ccc(Cl)cc2)cc1`: the “hERG current change (%, negative = inhibition) at 1uM” value is on record as 15.7%. The same measure for `N/C(=N\OC(=O)Nc1ccc(Cl)c(Cl)c1)c1ncc(C(F)(F)F)cc1Cl`: 6.75%. In the case of `COc1nccnc1NS(=O)(=O)c1ccc(NC(=S)NC(=O)c2ccc(F)cc2)cc1` it was 11.4%; in that of `COC(=O)C1=CN(c2cc(C)cc(C)c2)C=C(C(=O)OC)C1c1cccc(F)c1`, 12.9%; in that of `O=C1CC(NNC(=O)c2cccc(F)c2)C(=O)N1` (stereo not drawn), 12.8%. The same measure for `CCc1nnc(NC(=O)CSc2nnc(C3CC3)n2C)s1`: 4.74%; for `CC(=O)Nc1ccc(S(=O)(=O)NCCC(=O)OC(C)C(=O)c2ccc(C)cc2)cc1` (stereo not drawn): 7.3%. In the case of `Cc1ccccc1OCC(=O)Nc1ccc2c(c1)C(=O)c1ccccc1C2=O`, the “hERG current change (%, negative = inhibition) at 1uM” value worked out at 16.2%.

For the compound `CC(=O)Nc1ccc(OCC(O)CN2CCN(S(=O)(=O)c3ccc(NC(C)=O)cc3)CC2)cc1` (stereo not drawn), the “hERG current change (%, negative = inhibition) at 1uM” value is recorded as -11.4%. In the case of `O=C(CSc1nc2ccc(Nc3nc(N4CCOCC4)nc(N4CCOCC4)n3)cc2s1)Nc1ccccc1Cl` it was 16.8%; in that of `COc1cc(NC(=O)COC(=O)c2n[nH]c3ccccc23)c(C)cc1[N+](=O)[O-]`, 10.9%; in that of `CC(=O)c1ccc(S(=O)(=O)N2Cc3ccccc3CC2C(=O)O)cc1` (stereo not drawn), 9.24%. In the case of `Cc1ccc(CC(CC(=O)NCCc2ccc3c(c2)OCO3)C(=O)O)cc1` (stereo not drawn) it was 0.913%. In the case of `O=C(Nc1cccc(C(=O)N2CCN(c3ccc(F)cc3)CC2)c1)c1ccccc1` it was -18.4%. As for `CCOC(=O)COn1c(=O)c(-c2ccc(Cl)cc2)[n+]([O-])c2ccccc21`, the “hERG current change (%, negative = inhibition) at 1uM” value was determined as 11.2%. As for `CC1CCN(c2cc(N)c(Cl)cc2[N+](=O)[O-])CC1`, the “hERG current change (%, negative = inhibition) at 1uM” value is reported as 7.44%. The same measure for `O=C(C1CCC(CNS(=O)(=O)c2cccc3nsnc23)CC1)N1CC=C(c2ccccc2)CC1` (stereo not drawn): 16.2%; for `Cc1ccc(-c2nnn(C(C)C(=O)N3c4ccccc4CCc4ccccc43)n2)cc1` (stereo not drawn): 11%; for `O=C(NCC(c1ccco1)N1CCN(c2ccccc2F)CC1)c1ccc2c(c1)OCO2` (stereo not drawn): 1.86%. In the case of `Cc1ccc(N2C(=O)C(NC(=O)c3c(F)cccc3F)(C(F)(F)F)C3=C2CC(C)(C)CC3=O)cc1` (stereo not drawn) it was 10.6%; in that of `COc1ccc(N/C=C/C(=O)c2ccc(C)cc2)c([N+](=O)[O-])c1`, 19.7%. In the case of `COc1cccc(NC(=O)NC2CCN(CC(=O)Nc3ccccc3[N+](=O)[O-])CC2)c1` it was -7.45%. On to `CC1=C(C#N)C(Nc2ccc(Cl)cn2)(C(F)(F)F)C(=O)N1` (stereo not drawn), for which the “hERG current change (%, negative = inhibition) at 1uM” value is 1.69%. The same measure for `CC(=O)Nc1ccc(NC(=O)CSc2nnc(-c3cc4ccccc4o3)n2C)cc1`: 4.17%; for `COCCNC(=O)CSc1nc(-c2ccccc2)c(-c2ccccc2)o1`: 2.54%; for `C[C@H]1CCC2[C@](C)(CO)[C@@H](O)CC[C@]2(C)[C@@]12CCC(CO)(CCO)O2` (stereo partly drawn): 18.9%. In the case of `Cc1cccc2sc(NC(=O)C3CSC4(C)CCC(=O)N34)nc12` (stereo not drawn) it was 3.04%; in that of `CC1CCN(c2ccc(-c3cccc(NC(=O)c4ccco4)c3)nn2)CC1`, 4.62%. In the case of `CN(C)C1=NCCN1CC1CCCC1` it was 11.5%; in that of `COCCCNC(=O)c1ccc(S(=O)(=O)c2ccc(Cl)cc2)c(NC(C)=O)c1`, 10.6%; in that of `Fc1ccc(N/N=C/c2cccnc2)c(F)c1`, 13.1%. Take `O=C(NC1CC1)c1nc(Cn2cc([N+](=O)[O-])cn2)no1`: the “hERG current change (%, negative = inhibition) at 1uM” value is 15.1%.

For `COc1ccc(CCNS(=O)(=O)CCNC(=O)c2ccccc2)cc1`, the “hERG current change (%, negative = inhibition) at 1uM” value was 10.5%.

Regarding `CN1C(=O)/C(=C\c2ccc(N3CCCCCC3)cc2)C(=O)NC1=S`, the “hERG current change (%, negative = inhibition) at 1uM” value stood at 18.9%. `CC1(C)CCN2CCC(C)(C)c3c(O)ccc1c32.CS(=O)(=O)O`: the “hERG current change (%, negative = inhibition) at 1uM” value came to 11.4%. In the case of `Cc1ccc(Cl)cc1NC(=S)Nn1cnnc1` it was 8.85%. In the case of `COc1ccc(/C=C2/SC(=S)N(c3ccc(S(=O)(=O)Nc4nccs4)cc3)C2=O)cc1` it was 13.4%; in that of `Cc1ccc(-c2cnc3c(Cl)c(C)nn3c2)cc1`, 9.07%; in that of `CC1CCCC(NC(=S)NC(=O)c2ccccc2Br)C1C` (stereo not drawn), 15.1%. Consider `COCCNCC1C(Oc2ccc(Cl)cc2)C(=O)N1c1ccccc1C.Cl` (stereo not drawn), for which the “hERG current change (%, negative = inhibition) at 1uM” value came to 9.38%. In the case of `C=CCn1c(O)c(C2=c3ccccc3=NC2=O)sc1=Nc1ccc(O)cc1` it was 9.95%. Consider `O=C(NCCN1CCCC(O)C1)c1cc(COc2ccc(F)cc2Cl)on1` (stereo not drawn), for which the “hERG current change (%, negative = inhibition) at 1uM” value turned out to be 9.82%. `CCc1ccc(NC(=O)Cn2nc(C)n3cccc3c2=O)cc1`: the “hERG current change (%, negative = inhibition) at 1uM” value stood at 15.1%. In the case of `CCOc1ccccc1-c1nc(-c2ccc(NC(=O)Cc3ccc(OC)cc3)cc2)no1`, the “hERG current change (%, negative = inhibition) at 1uM” value is listed as 14.7%.

For the compound `COC(=O)c1cc(=O)nc2sc3ccccc3n12`, the “hERG current change (%, negative = inhibition) at 1uM” value is reported as 9.45%. Take `Cn1c(=O)c2c(nc(OCc3cccnc3)n2Cc2c(F)cccc2Cl)n(C)c1=O`: the “hERG current change (%, negative = inhibition) at 1uM” value is 11.5%. In the case of `NC(=O)[C@@H]1CCNc2c(I)cc([N+](=O)[O-])cc2C(=O)N[C@@H](CCC(=O)O)C(=O)N[C@@H](CO)C(=O)N1` it was 12.9%. The same measure for `CCOc1ccc(C(=S)N2CCCC2)cc1OC`: 13.8%. The same measure for `Cc1noc(C(=O)Nc2ccc3c(c2)OCO3)c1Cl`: 3.02%; for `COC(=O)c1cscc1S(=O)(=O)Cc1ccccc1`: 12%. As for `COc1cccc(N=Nc2c(N)[nH][nH]c2=O)c1`, the “hERG current change (%, negative = inhibition) at 1uM” value is recorded as 9.85%. The same measure for `Cc1ccc(NC(=O)c2sccc2SCc2cccc(C(F)(F)F)c2)cc1`: 16%. The same measure for `Cc1ccc(N2C(=O)c3n[nH]c(C)c3C2c2ccco2)cc1` (stereo not drawn): -0.0701%; for `CCN(CC)S(=O)(=O)c1ccc(N2CCOCC2)c(NC(=O)COc2ccccc2C#N)c1`: -1.84%. In the case of `CCC(CC)c1nc2cc(OC)c(OC)cc2c(=O)o1` it was 14.5%. `O=C(O)C1CC(=O)N(c2ccc(Br)cc2)C1` (stereo not drawn): the “hERG current change (%, negative = inhibition) at 1uM” value was found to be 9%. As to `COCCN=C1NN=C(c2ccc(NC(C)=O)cc2)CS1`, the “hERG current change (%, negative = inhibition) at 1uM” value is given as 3%. In the case of `C=CCN(CC(=O)Nc1c(C)cccc1CC)C(=O)SCCC` it was 12.8%. As to `COc1ccc(-c2nc(CN3CCC(C(=O)N4CCOCC4)CC3)c(C)o2)cc1C`, the “hERG current change (%, negative = inhibition) at 1uM” value turned out to be 11.8%. For `CCn1cc(CNC(=O)C2CCC(=O)N(Cc3ccc(Cl)cc3)C2)cn1` (stereo not drawn), the “hERG current change (%, negative = inhibition) at 1uM” value is recorded as 12.6%.

Regarding `Cc1c(C)n(CC(O)CN2C(=O)c3ccccc3S2(=O)=O)c2ccccc12` (stereo not drawn), the “hERG current change (%, negative = inhibition) at 1uM” value came to 8.88%. In the case of `Cc1cc(NC(=O)c2ccc3c(c2)OCO3)no1` it was 21.3%; in that of `CCCCN(CCCC)c1nc(OC)nc(-n2nnc(C(C)=O)c2C)n1`, -3.57%. As for `CC(=O)Oc1cccc(C(=O)Nc2cccc(C(=O)Nc3ccccc3C(=O)O)c2)c1`, the “hERG current change (%, negative = inhibition) at 1uM” value is on record as 12.8%. In the case of `Clc1ccc(-c2nnc3ccccn23)cc1` it was -2.74%. In the case of `CCOc1cc(C(=O)Nc2nnc(S(=O)(=O)N3CCOCC3)s2)cc(OCC)c1OCC` it was 13.9%; in that of `Cc1nc([N+](=O)[O-])c(Br)n1CC(=O)c1cccc([N+](=O)[O-])c1`, -2.8%; in that of `N#Cc1c(-c2ccccc2)nc(N2CCCCCC2)[nH]c1=O`, 6.09%. In the case of `N#CCSCC(=O)Nc1ccccc1` it was 6.23%. On to `CCN(CC(=O)NCc1ccc(F)cc1)C(=O)CN1CCN(c2cc(Cl)ccc2C)CC1`, for which the “hERG current change (%, negative = inhibition) at 1uM” value is listed as -68.2%. As for `CCOC(=O)c1ccccc1NC(=O)COC(=O)CSCC(=O)Nc1cc(C)on1`, the “hERG current change (%, negative = inhibition) at 1uM” value is 5.88%. In the case of `COc1ccc(-c2noc(CSc3nnc(Cc4ccccc4)n3-c3ccc(Cl)cc3)n2)cc1` it was 16.1%; in that of `NC(=O)CC(NC(=O)c1cccc(Br)c1)c1ccc(NC2CCC2)c([N+](=O)[O-])c1` (stereo not drawn), -2.76%. In the case of `C=CCC(=O)OCC(=O)Nc1ccc(Cl)cn1` it was 0.45%; in that of `CCC(=O)N1CCN(c2ccc(NC(=O)c3ccc(N4CCOCC4)c([N+](=O)[O-])c3)cc2)CC1`, 9.74%; in that of `O=C(Nc1ccncc1)Nc1cc(Cl)ccc1Cl`, 15%.

`COc1cccc(/C=C2\N=C(C3CCCCC3)OC2=O)c1OC`: the “hERG current change (%, negative = inhibition) at 1uM” value is listed as -2.27%. For `Cc1ccccc1C(=O)Nc1ccc2c(c1)C(=O)NC2=O`, the “hERG current change (%, negative = inhibition) at 1uM” value came out at 12.8%.

In the case of `Cc1ccc(S(=O)(=O)N(C(=O)c2ccncc2)c2ccc(OC(=O)c3ccncc3)c3ccccc23)cc1`, the “hERG current change (%, negative = inhibition) at 1uM” value turned out to be 2.31%. In the case of `CCCC1=Nc2cc(C(=O)NCCCOC(C)C)ccc2Sc2ccccc21` it was -1.28%.
